Test results taken from PubChem BioAssay (NCATS).
The inconclusive results got no clear call from the source; some entries with a clear call stand among them for comparison. Potencies of inconclusive entries are left out as doubtful fits. Activity calls are given as the source filed them. The call rests on the fitted dose curve; in most records, active means well fitted inhibition curve with a large enough effect; inconclusive means small, poorly fitted or top-dose-only effect; inactive means no such curve, though single readings can be large or run the other way.

Biological target: N-terminal Xaa-Pro-Lys N-methyltransferase 1 (Homo sapiens) (UniProt Q9BV86)
Sequence of UniProt Q9BV86 (Q9BV86 whole entry, looked up): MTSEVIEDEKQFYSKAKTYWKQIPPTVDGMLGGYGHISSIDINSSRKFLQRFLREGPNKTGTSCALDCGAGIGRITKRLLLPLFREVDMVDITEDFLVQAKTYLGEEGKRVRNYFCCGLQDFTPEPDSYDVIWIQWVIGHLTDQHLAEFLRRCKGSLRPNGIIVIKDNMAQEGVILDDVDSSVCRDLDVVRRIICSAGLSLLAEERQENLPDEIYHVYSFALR
Assay: Confirmatory qHTS for Inhibitors of N-terminal methyltransferase 1 (NTMT1): MTaseGlo Assay (AID 1645874); further: nearly all actives have a fitted effect of over 65% in size
Conditions: NTMT1 enzyme, MTase-Glo SAH luminescence; series mostly up to 100 µM
In short: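 Preincubation of NTMT1 (125 nM) plus SAM (100 uM) with test compounds lasted 15 min; methylation of 1 uM SPKRIA then proceeded 30 min in the dark at room temperature. Luciferase signal reported SAH produced.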
Potency means the concentration at half of the fitted maximal effect; tags describe the fitted curve by direction and shape.

SMILES | Potency
COc1cc2c(NC3CCN(C(C)C)CC3)nc(N3CCCN(C)CC3)nc2cc1OCCCN1CCCCC1 | inconclusive [inhibitor, partial curve]
Cc1ccc(Cl)cc1-n1ncc2c(Nc3cccc(C)c3C)ncnc21 | inconclusive [inhibitor, full curve]
CC(=O)Nc1sc2c(c1-c1ccc3scnc3c1)CCNC2 | active: 44.7 µM
COc1cccc(C2=Nn3c(nnc3-c3ccccc3C)SC2)c1 | inconclusive [inhibitor, partial curve, poor fit]
COc1ccnc(NC(=S)N2CCN(c3cccc(Cl)c3Cl)CC2)c1 | inconclusive [inhibitor, full curve]
O=C(NCCc1ccccc1)C1CCN(c2nc(-c3ccc(Br)cc3)cs2)CC1 | inactive
COc1cc2c(NC3CCN(C)CC3)nc(N3CCCN(C)CC3)nc2cc1OCCCN1CCCCC1 | inconclusive [inhibitor, partial curve]
COc1cccc(NC(=O)CN(CCc2ccccc2)S(=O)(=O)c2ccc(Cl)cc2)c1 | active: 8.51 µM
c1nc(N2CCOCC2)c2cc(-c3ccc4c(c3)OCO4)ccc2n1 | inconclusive [inhibitor, partial curve]
CCN(CC)CCCOc1cc2nc(N3CCCN(C)CC3)nc(NC3CCN(C)CC3)c2cc1OC | inconclusive [inhibitor, partial curve]
